# Reference: paper PMC4336329 (PLoS ONE, 2015)
# The campaign covered roughly 310,000 compounds. About 14,000 (4.5%) showed an effect of 50% or more. Effects have a minus sign here. The list shows a part of the results. *1 amine or outer side, *2 acyl side, *3 side chain or, on linkers, in order; H or OH if unused. Where a SMILES comes first, the peptide text is derived from it. Bridges are numbered along the chain shown (N, C = ends). [ ]: non-standard residue; d: D form. ξ: configuration not given here. hSer(Ph(2-I,4-NO2,6-CO)) = O=C([C@H](CCOc1c(I)cc([N+](=O)[O-])cc1C(=O)[*:3])N[*:1])[*:2]; ξD = NC(CC(=O)O)C(=O)O
# Target: human ether-à-go-go-related gene (hERG) potassium channel (human, UniProt Q12809)
# Assay: primary screen, population patch clamp on CHO cells stably expressing hERG
# 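Further: peak tail current of the secondary pulse compared with the same well before compound.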
# human ether-à-go-go-related gene (hERG) potassium channel, sequence (Q12809 whole entry, looked up): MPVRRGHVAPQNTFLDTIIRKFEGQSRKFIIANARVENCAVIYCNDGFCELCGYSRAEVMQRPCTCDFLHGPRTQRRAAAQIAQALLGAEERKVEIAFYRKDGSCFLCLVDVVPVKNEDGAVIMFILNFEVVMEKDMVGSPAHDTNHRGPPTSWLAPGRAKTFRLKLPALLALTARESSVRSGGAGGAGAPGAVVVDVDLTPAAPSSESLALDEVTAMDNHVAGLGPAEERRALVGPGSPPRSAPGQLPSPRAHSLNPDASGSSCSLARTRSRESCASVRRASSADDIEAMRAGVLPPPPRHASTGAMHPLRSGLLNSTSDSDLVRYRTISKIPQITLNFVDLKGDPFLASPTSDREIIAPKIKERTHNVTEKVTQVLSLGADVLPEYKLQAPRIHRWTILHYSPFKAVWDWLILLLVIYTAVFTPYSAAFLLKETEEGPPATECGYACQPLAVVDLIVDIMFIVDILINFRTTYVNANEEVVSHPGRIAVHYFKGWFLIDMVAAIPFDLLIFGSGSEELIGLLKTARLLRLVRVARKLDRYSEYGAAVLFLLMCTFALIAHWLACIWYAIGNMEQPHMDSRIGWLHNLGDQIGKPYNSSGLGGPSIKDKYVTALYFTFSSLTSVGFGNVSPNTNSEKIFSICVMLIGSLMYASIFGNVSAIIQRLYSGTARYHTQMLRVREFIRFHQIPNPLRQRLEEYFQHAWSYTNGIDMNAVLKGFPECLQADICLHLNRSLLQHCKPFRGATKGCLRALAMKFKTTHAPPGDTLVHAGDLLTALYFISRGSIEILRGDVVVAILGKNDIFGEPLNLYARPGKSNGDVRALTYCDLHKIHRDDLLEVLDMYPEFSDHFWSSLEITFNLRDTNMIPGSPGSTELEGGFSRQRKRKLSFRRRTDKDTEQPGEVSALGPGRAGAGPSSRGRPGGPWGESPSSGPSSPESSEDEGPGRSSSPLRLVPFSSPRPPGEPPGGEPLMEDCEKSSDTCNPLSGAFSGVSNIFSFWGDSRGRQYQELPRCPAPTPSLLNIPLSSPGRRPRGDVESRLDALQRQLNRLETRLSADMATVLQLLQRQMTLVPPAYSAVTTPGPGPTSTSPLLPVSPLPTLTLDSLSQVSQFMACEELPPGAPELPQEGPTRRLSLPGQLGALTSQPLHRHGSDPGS
row,Structure (SMILES),"hERG current change (%, negative = inhibition) at 10uM [%]"
1,CN(C)c1ccc(C(=O)OCC(=O)Nc2ccc(S(N)(=O)=O)cc2)cc1,7.75
2,COc1ccccc1NC(=O)C(=O)NNC(=O)COc1ccc2ccccc2c1,18.3
3,CCCCCCSc1ccc([C@@H]2[C@H]3C(=O)N(C)C(=O)[C@H]3[C@]3(C(=O)OC)CCCCN23)cc1.O=C(O)C(F)(F)F,-10.9
4,COC(=O)Cn1c(=O)c2c(nc(Br)n2CC(=O)OC)n(C)c1=O,3.72
5,O=C1CC(c2cccs2)CC(O)=C1C=NCCN1CCNCC1 (centres unmarked),-17.5
6,C#CCOCCOCCOCCNc1nc(N2CCN(C(=O)[C@H](Cc3cc4ccccc4[nH]3)n3cc([C@@H](N)CC(C)C)nn3)CC2)nc(N2CCN(C(=O)[C@H](Cc3cc4ccccc4[nH]3)n3cc([C@@H](N)CC(C)C)nn3)CC2)n1.Cl,-7
7,CCC(C)[C@H](NS(=O)(=O)c1ccc(C)cc1)C(=O)N1CCC(C(=O)N2CCC(C(N)=O)CC2)CC1 (some centres unmarked),18.2
8,COc1cccc(NC(=O)C2C3C=CC4(O3)C2C(=O)N(CCCN2CCCCC2)C4C(=O)NC2CCCCC2)c1 (centres unmarked),19
9,Br.N=c1n(N)c2ccccc2n1CC(=O)c1ccc(Br)cc1,-36.7
10,COc1ccc(N2CC(C(=O)NCCc3ccc(Cl)cc3)CC2=O)cc1 (centres unmarked),-15.9
11,NC(=O)/C(=C\c1cccnc1)NC(=O)c1ccccc1,14.8
12,Cc1ccccc1C(=O)Nc1nnc(CC(=O)N/N=C/c2cn(Cc3ccccc3)c3ccccc23)s1,12.6
13,CC(=O)Oc1ccc(-c2cc3ccccc3oc2=O)cc1,0.436
14,CCN(CC)S(=O)(=O)c1ccc(-c2nnc(SCc3nnc(-c4ccccc4)o3)o2)cc1,7.63
15,COc1ccc2[nH]c(C(=O)N3CCN(c4ccccc4F)CC3)c(C)c2c1,0.586
16,COCCCNS(=O)(=O)c1ccc2c(c1)CCN2C(C)=O,13.1
17,O=C(CNC(=O)c1ccc(Cl)cc1Cl)NCC1CCCO1 (centres unmarked),13.1
18,"C[C@@H]1NC(=O)[C@H](CC(N)=O)NC(=O)c2cc([N+](=O)[O-])cc(I)c2OCC[C@@H](C(=O)NC(CC(=O)O)C(N)=O)NC1=O (some centres unmarked) (NA[hSer(Ph(2-I,4-NO2,6-CO))][ξD]-NH2; lactam N-3)",6.03
19,CCOC(=O)C1CCN(C(=O)c2ccc3c(SCC(=O)O)c4c(nc3c2)CCCC4)CC1,27.1
20,COc1ccc(CCNC(=O)COC(=O)C23CC4CC(CC(C4)C2)C3)cc1,-1.13
21,COc1ccc(NC(=O)CS(=O)CC(=O)Nc2cccc3cccnc23)cc1 (centres unmarked),0.361

row,Structure (SMILES),"hERG current change (%, negative = inhibition) at 10uM [%]"
1,CC(C)C(=O)NC(c1cccc([N+](=O)[O-])c1)c1c(O)ccc2ccccc12 (centres unmarked),18.6
2,CSc1cccc(NS(=O)(=O)c2ccc3c(c2)NC(=O)C(C)C(=O)N3)c1 (centres unmarked),-3.61
3,CC(=O)NC(=O)NC1CSCC1OC(C)=O (centres unmarked),15.8
4,O=S(=O)(c1cccc2cccnc12)N1CCN(c2ccccc2)CC1,5.87
5,CC(C)COC(=O)COc1cc(Cl)c(Cl)cc1Cl,13.5
6,CCOC(=O)c1c(S(=O)(=O)NCC(=O)N2CCN(c3ccc(F)cc3)CC2)c(C)n(C)c1C,-45.5
7,Cn1c(COc2ccccc2O)[n+](C)c2ccccc21.[Br-],15.8
8,COCCN(C(=S)Nc1ccc(C)cc1C)C(C)c1cccs1 (centres unmarked),3.09
9,CC(=O)c1ccc(S(=O)(=O)N(C)CCCC(=O)N(C)Cc2c(F)cccc2Cl)cc1,-19.3
10,C=CCn1c(=O)c(C(=O)NCCNCC)c(O)c2ccccc21.Cl,2.97
11,O=C(CN1CCN(c2ccccc2Cl)CC1)NC1CCCc2ccccc21.O=C(O)C(=O)O (centres unmarked),-11.9
12,Cc1ccc(OCCC(=O)Nc2ccc(C)c(F)c2)cc1,-50.6
13,CCC(=O)N(Cc1cc2cc(C)c(C)cc2[nH]c1=O)C1CCCCC1,-8.98
14,CC1CCC(NC(=O)c2ccc(N3CCCC3=O)cc2)CC1 (centres unmarked),-4.44
15,CC(O)CNc1nc2ccccc2n1CC(=O)NC12CC3CC(CC(C3)C1)C2 (centres unmarked),4.74
16,N/C(=N\OC(=O)c1ccccc1[N+](=O)[O-])c1ccccn1,27.5
17,Nc1nc(SCC(=O)Nc2cccc(Oc3ccccc3)c2)n[nH]1,-13.8
18,CCC(=O)Nc1cc(-c2nc3ncccc3o2)ccc1Cl,5.64
19,CCOc1cc(Br)cc(/C=N/NC(=O)c2cccnc2)c1O,-7.42
20,OCCN(Cc1ccccc1)Cc1ccc(C(F)(F)F)cc1,-3.33
